Screen size: about 220,000 compounds; about 16,000 (7.3%) were called active. This list was built around the results that the source calls inconclusive (neither active nor inactive); the mix of calls is not that of the screen. The call rests on the fitted dose curve; in most records, active means well fitted inhibition curve with a large enough effect (not every such curve was filed as active); inconclusive means small, poorly fitted or top-dose-only effect, or another doubt; inactive means no such curve, though single readings can be large or run the other way. Where the call is inconclusive, the potency comes from a doubtful curve fit.
molecular target: Aldehyde dehydrogenase 1A1 (Homo sapiens) (UniProt P00352); assay: qHTS Assay for Inhibitors of Aldehyde Dehydrogenase 1 (ALDH1A1); conditions: Purified ALDH1A1, NADH fluorescence, propionaldehyde substrate; series mostly up to 75.3 µM;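 on activity, negative = inhibition: plate controls were no enzyme wells and a reference inhibitor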
Chain of UniProt P00352 (P00352 whole entry, looked up): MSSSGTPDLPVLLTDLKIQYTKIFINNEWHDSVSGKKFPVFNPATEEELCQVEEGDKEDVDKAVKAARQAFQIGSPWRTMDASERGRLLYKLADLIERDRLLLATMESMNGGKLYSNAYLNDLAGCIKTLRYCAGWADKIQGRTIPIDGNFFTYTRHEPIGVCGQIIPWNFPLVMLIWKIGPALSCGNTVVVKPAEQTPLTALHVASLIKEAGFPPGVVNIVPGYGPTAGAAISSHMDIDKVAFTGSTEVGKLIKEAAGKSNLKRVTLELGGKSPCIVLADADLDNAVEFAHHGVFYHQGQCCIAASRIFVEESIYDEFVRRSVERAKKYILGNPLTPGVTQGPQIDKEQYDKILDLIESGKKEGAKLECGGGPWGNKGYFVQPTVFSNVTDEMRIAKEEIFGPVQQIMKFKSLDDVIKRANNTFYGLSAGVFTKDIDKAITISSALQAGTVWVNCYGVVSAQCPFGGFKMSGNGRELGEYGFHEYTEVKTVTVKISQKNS
Potency means the concentration at half of the fitted maximal effect; tags describe the fitted curve by direction and shape.

Potency, active:
CCOC(=O)C1=C(C)OC(N)=C(C#N)C1c1ccccc1 (centres undefined) 22.4 µM, O=C(NNC(=S)Nc1ccccc1)c1cccc(S(=O)(=O)N2CCOCC2)c1 28.2 µM, Cc1cc(C)cc(-n2c(C)cc(/C=N/NC(=O)CSc3ncccn3)c2C)c1 28.2 µM, COc1ccc([N+](=O)[O-])cc1COc1cc(C)cc2oc(=O)cc(-c3ccccc3)c12 2 µM, N#Cc1ccc(CN2CC[C@@]3(CCCN(C(=O)c4ccco4)C3)C2)cc1 14.1 µM

Potency, inactive:
COc1ccc(Cc2nnc(SCc3c(C)noc3C)n2C2CCCCC2)cc1OC, Cc1ccc(S(=O)(=O)N2CCCC2C(=O)Nc2ccc(O)cc2)cc1 (centres undefined), CC(C)(C)OC(=O)N/N=C/c1cn(-c2ccccc2)nc1-c1cccnc1, COc1ccccc1NS(=O)(=O)c1ccc(NN=C2CCCCC2)c([N+](=O)[O-])c1, CCOc1cc(/C=N/NC(=O)C(=O)NCCCOC(C)C)cc(Br)c1O, COc1cccc(N2CCN(C(=S)Nc3cc(C)cc(C)c3)CC2)c1, O=[N+]([O-])c1ccc(OCC(O)CN(CCO)CCO)cc1 (centres undefined), COCCNC(=O)CSc1nc2ccccc2c(=O)n1CCCC(=O)NCc1ccccc1, Cc1sc(N/N=C/c2cccnc2)nc1-c1ccc(Cl)cc1

Potency, inconclusive:
COc1ccc(CNC(=O)/C(C#N)=C2\N=C(NC(=O)c3cccs3)c3ccccc32)cc1 11.2 µM [inhibitor, partial curve], CS(=O)(=O)c1ccc(/C=N\NC(N)=S)cc1 7.94 µM [inhibitor, single point], CN(C)c1ccc(N2C(=O)CC(Nc3ccc(N4CCOCC4)cc3)C2=O)cc1 (centres undefined) 22.4 µM [inhibitor, partial curve], CN(CCC#N)C(=O)COC(=O)/C=C/c1ccc2c(c1)OCO2 28.2 µM [inhibitor, partial curve], O=C(O)/C=C/C(=O)NNC(=O)c1ccc(Br)cc1 22.4 µM [inhibitor, single point], CC1Cn2c(nnc2-c2cc3ccccc3cc2O)S1 (centres undefined) 31.6 µM [inhibitor, partial curve], COc1ccc(C)cc1S(=O)(=O)N1CCN(Cc2ccccc2)CC1 39.8 µM [inhibitor, partial curve, poor fit], Cc1cc(NC(=O)CSc2nnnn2C2CCCC2)no1 17.8 µM [inhibitor, partial curve], Cc1cc(C)n(-c2nc3ccccc3nc2N2CCN(S(=O)(=O)c3ccc4ccccc4c3)CC2)n1 35.5 µM [inhibitor, single point], CCC/C(O)=C1\C(=O)CCCC1=NCCc1c(C)[nH]c2ccc(OC)cc12 15.8 µM [inhibitor, single point], Cc1ccc(CNC(=O)COC(=O)CSc2ccc(Br)cc2C)cc1 39.8 µM [inhibitor, single point], CCN1C(=O)/C(=C\N(C)C)S/C1=N\S(=O)(=O)c1ccccc1 22.4 µM [inhibitor, single point], COC(=O)c1c(NC(=O)c2ccc(C)o2)sc2c1CCCCC2 25.1 µM [inhibitor, partial curve], COC(=O)c1ccc(Cn2cnc3c(sc4nc(N5CCOCC5)c5c(c43)CCCC5)c2=O)o1 25.1 µM [inhibitor, partial curve], COC(=O)c1[nH]c(C)c(/C(O)=C2\C(=O)C(=O)N(CCN(C)C)C2c2ccc(OC)cc2)c1C (centres undefined) 28.2 µM [inhibitor, single point], CC1CCCCC1NS(=O)(=O)c1ccc(S(=O)(=O)N2CCCC2)cc1 (centres undefined) 22.4 µM [inhibitor, partial curve], Cc1c(-c2ccccc2)c(P(=O)(N2CCOCC2)N2CCOCC2)c2ccccn12 22.4 µM [inhibitor, partial curve], CC1=C(C(=O)Nc2cccc(C)n2)C(c2ccc3c(c2)OCO3)C2=C(CC(c3ccco3)CC2=O)N1 (centres undefined) 28.2 µM [inhibitor, partial curve], Cc1c(C2=CCN(S(=O)(=O)c3ccc(Cl)cc3)CC2)c2ccccc2n1C 39.8 µM [inhibitor, single point], COc1cc(OC)cc(C(=O)N2CCN(C3CCN(Cc4ccccc4)CC3)CC2)c1 39.8 µM [inhibitor, single point], CCn1c(SCC(=O)c2ccccc2)nnc1-c1cccnc1 39.8 µM [inhibitor, single point], COC(=O)Cn1c(=NC(=O)c2ccc(S(=O)(=O)N3CCc4ccccc4C3)cc2)sc2cc(OC)ccc21 25.1 µM [inhibitor, partial curve], Cc1cc(C)c(C)c(S(=O)(=O)NCc2ccc(C(=O)N3CCCCC3)cc2)c1C 31.6 µM [inhibitor, single point], Nc1cccc(-c2cn3cccnc3n2)c1 39.8 µM [inhibitor, single point], COc1ccc(NC(=O)CSc2nc3c(c(=O)n2-c2ccccc2)SCC3)c(OC)c1 39.8 µM [inhibitor, single point], CCOC(=O)C1=C(C)N(C)C(=S)NC1c1ccccc1 (centres undefined) 22.4 µM [inhibitor, partial curve], O=C(Nc1ccc(N2CCCC2)cc1)c1ccccc1F 39.8 µM [inhibitor, single point], c1cn(-c2ccnc(-c3ccc4c(c3)OCO4)n2)cn1 25.1 µM [inhibitor, single point], COc1ccc(-n2nc3c(c2NC(=O)c2ccc(S(=O)(=O)N4CCOCC4)cc2)CS(=O)(=O)C3)cc1 15.8 µM [inhibitor, partial curve, poor fit]

activity, negative = inhibition, inactive:
Cc1cc2ccccc2c[n+]1CC(O)C[n+]1cc2ccccc2cc1C 0.198% [at 13.5 µM]

Reference: PubChem BioAssay AID1030 (National Center for Advancing Translational Sciences (NCATS), 2008)
